# Results published in the RNAGym collection of RNA variant scans (doi:10.7554/elife.90254).
# Read counts are not given, so values of variants with three or more changes are uncertain.
# B1: OR4K15 (parent)
# chain: GUUAACGGUCAUAGGCCAUGGAAACUAGGAGCACCAUUUCGCUGCCAGUGAAGAAAUGAACAAAGAAAAUCUGGGCCAGGCAGGCAUCAAAAGAAAUAGUCUUGCGCUCAACCAGAAAGUCUGUAAUCAUUUUAAGGGUA
# Variants of: B1
# Assay: self-cleavage, relative activity (ratio to wild type); higher = more cleavage; in vitro, sequencing; the parent is a self-cleaving ribozyme
row,Variant,self-cleavage
1,GUUAACGGUCAUAGGCCAUGGAUACUAGGAGCACCAUUUCGCUGCCAGUGAAGAGAUGAACAGAGAAAAUCUGGGCCAGGCAGGCAUCAAAAGAAAUAGUCUUGCGCUCAACCAGAAAGUCUGUAAUCAUUUUAAGGGUA,1.25
2,GUUAACGGUCAUAGGCCAUGGAUACUGGGAGCACCAUUUCGCUGCCAGUGAAGAGAUGAACAAAGGAAAUCUGGGCCAGGCAGGCAUCAAAAGAAAUAGUCUUGCGCUCAACCAGAAAGUCUGUAAUCAUUUUAAGGGUA,0.98
3,GUUAACGGUCAUAGGCCAUGGAGACUAGGAGCACCAUUUCGCUGCCAGUGAAGAAAUGAACAAAGAAAAUCUGGGCCAGGCAGGCAUCAAAAGAAAUAGCCUUGCGCUCAACCAGAAGGUCUGUAAUCAUUUUAAGGGUA,1.6
4,GUUAACGGUCAUAGGCCAUGGAGACUAGGAGCACCAUUUCGCUGCCAGUGAAGAAAUGAACAAAGAAAAACUGGGCCAGGCAGGCAUCAAAAGAAAUAGUCUUGCGCUCAACCAGGAAGUCUGUAAUCAUUUUAAGGGUA,0.81
5,GUUAACGGUCAUAGGCCAUGGAUACUGGGAGCACCAUUUCGCUGCCAGUGAAGAAAUGAACAAAGAAAAUCUGGGCCAGGCAGGCAUCAAAAGAAAUAGUCUUGCGCUCAACCAGAAAGUCUGUAAUCAUCUUAAGAGUA,0.78
6,GUUAACGGUCAUAGGCCAUGGAGACUAGGAGCACCAUUUCGCUGCCAGUGAAGAAACGAACAAAGAAAAUCUGGGCCAGGCAGGCAUCAAAAGAAAUAGUCUUGCGCCCAACCAGAAAGCCUGUAAUCAUUUUAAGGGUA,0
7,GUUAACGGUCAUAGGCCAUGGAGACUAGGAGCACCAUUUCGCUGCCAGUGAAGAAAUGAACAAAGAAAACCUGGGCCAGGCAGGCAUCAAAAGAAAUAGUCUUGCACUCAACCAGAAAGUCUGUAAUCAUUUUAAGGGUA,0.08
8,GUUAACGGUCAUAGGCCAUGGAUACUGGGAGCACCAUCUCGCCGCCAGUGAAGAAAUGAACAAAGAAAAUCUGGGCCAGGCAGGCAUCAAAAGAAAUAGUCUUGCGCUCAACCAGAAAGUUUGUAAUCAUCUUAAGGGUA,0.4
9,GUUAACGGUCAUAGGCCAUGGAUACUAGGAGCACCAUUUCGCUGCCAGUGAAGAGAUGAACAAAGAAAAUCUGGGCCAGGCAGGCAUCAAAGGAAAUAGUCUUGCGCUCAACCAGAAAGUCUGUAAUCAUUUUAAGGGUA,0.58
10,GUUAACGGUCAUAGGCCAUGGAUACUAGGAGCUCCACUUCGCUGCCAGUGAAGAAGUGAACAAAGAAAAUCUGGGCCAGGCAGGCAUCAAAAGAAAUAGUCUUGCGCUCAACCAGAAAGUCUGUAAUCAUUUUAAGGGUA,0.86
11,GUUAACGGUCAUAGGCCAUGGAGACUAGGAGCACCAUUUCGCUGCCAGUGAAGAAAGGAACAAAGAUGAUCUGGGCCAGGCAGGCACCAAAAGAAAUAGUCUUGCGCUCAACCAGAAAGUCUGUAAUCAUUUUAAGGGUA,0.63
12,GUUAACGGUCAUAGGCCAUGGAGACUAGGAGCACCAUUUCGCUGCCAGUGAAGAAAUGAACAAAGAAAAUCUGGGCCAGGCAGGCAUCAAAAGAAAUAGUCUUGCGCUCAACCAGAAAGUCUGUAAUCACUUUAUGGGUG,1.24
13,GUUAACGGUCAUAGGCCAUGGAUACUAGGUGCGCCAUUUCGCUGCCAGUGAAGAAAUGAACAAAGAAAAUCUGGGCCAGGCAGGCAUCAAAAGAGAUAGUCUUGCGCUCAACCCGGAAGUCUGUAAUCAUUUUAAGGGUA,0.01
14,GUUAACGGUCAUAGGCCAUGGAGACUAGGAGCACCAUUUCGCUGCCAGUGAAGAAAUGAACAAAGAAAAUCUGGGCCAGGCAGGCAUCAAAAGAAAUAGUCUUGCGCUCAACCAGAAAGUCUGUAAUCACUCUAAGGGUA,0.97
15,GUUAACGGUCAUAGGCCAUGGAUACUGGGAGCACCAUUUCGCUGCCCGUGAAGAAAUGAACAAAGAAAAUCUGGGCCAGGCAGGCAUCAAAAGAAACAGUCUUGCGCUCAACCAGAAAGUCUGUAAUCAUUUUAAGGGUA,0.97
16,GUUAACGGUCAUAGGCCAUGGAGACUAGGAGCACCAUUUCGCUGCCAGUGAAGAAACGAACAAAGAAAAUCUGGGCCAGGCAGGCAUCAAAAGAAAUAGUCUCGCGCUCAACCAGAAAGUCUGUAAUCAUUUUAAGGGUA,0.16
17,GUUAACGGUCAUAGGCCAUGGAGACUAGGAGCACCAUUUCGCUGCCAGUGAAGAAAUGAACAAAGAAAAUCUGGGCCAGGCAGGCAUCAAAAGAAAUAGUCUUGCGCUCAACCAGAAAGUCUGCAAUCAUUAUAAGGGUA,0.72
18,GUUAACGGUCAUAGGCCAUGGAUACUAGGAGCACCAUUUCGCUGCCAGUGAAGAAAUGAACAGAGAAAAUCUGGGCCAGGCAGGCAUCAAAAGAAAUAGUCUUGCGCCCAACCAGAAAGUCUGUAAUCAUUUUAAGGGUA,0.02
19,GUUAACGGUCAUAGGCCAUGGAGACUAGGAGCACCAUUUCGCUGCCAGUGAAGAAAUGAACAAAGAAAAUCCGGGCCAGGCAGGCAUCAAAAGAAAUAGUCUUGCGCUCAACCAGAAAGCCUGUAAUCAUUUUAUGGGUA,0.13
20,GUUAACGGUCAUAGGCCAUGGAUACUAGGAGCACCUUUUCGCAGCCAGUGGAGAAAUGAACAAAGAAAAUCCGGGCCAGGCAGGCAUCAAAAGAAAUAGUCUUGCGCUCAACCAGAAAGUCUGUAAUCAUUUUAAGGGUA,0.36
21,GUUAACGGUCAUAGGCCAUGGAGACUAGGAGCACCAUUUCGCUGCCAGUGAAGAAAUGAACAAAGAAAAUCUGGGCCAGGCAGGCAUCAAAAGAAAUAGUCCUGCGCUCAACCAGAAAGUCUGUAAUCGUUUUAAGGGUA,1.26

row,Variant,self-cleavage
1,GUUAACGGUCAUAGGCCAUGGAGACUAGGAGCACCAUUUCGCUGCCAGUGAAGAAACGAACAAAGAAAAUCUGGGCCAGGCAGGCAUCAAAAGAAAUAGUCUUGCGCUCAACCAGAAAGCCUGUAAUCAUUUUAAGGGUA,0.1
2,GUUAACGGUCAUAGGCCAUGGAGACUAGGAGCACCAUUUCGCUGCCAGUGAAGAAAUGAACAAAGAAAAUCUGGGCCAGGCAGGCAUCAAAAGAAAUAGUCCGGCGCUCAGCCAGAAAGUCUGUAAUCAUCUUAAGGGUA,0
3,GUUAACGGUCAUAGGCCAUGGAGACUAGGAGCACCAUUUCGCUGCCAGUGAAGAAAUGAACAAAGAAAAUCUGGGCCAGGCAGGCAUCAAAAGAAAUAGUCUCGCGCUCAACCAGAAGGUCUGUAAUCAUUUUAAGGGUA,0.38
4,GUUAACGGUCAUAGGCCAUGGAUACUAGGAGCACCAUUUCGCUGCCAGUGAAGAAAUGAACGAAGAAAAUCUGGGCCAGGCAGGCGUCAAAAGAAAUAGUCUUGCGCUCAACCAGAAAGUCUGUAAUCAUUUUAAGGGUA,1.26
5,GUUAACGGUCAUAGGCCAUGGAUACUAGGAGCGCCAUCUCGCUGCCAGUGAAGAAAUGAACAAAGAAAAUCUGGGCCAGGCAGGCAUCAAAAGAAAUUGUCUUGCGCUCAACCAGAAAGUCUGUAAUCAUUUUAAGGGUA,1.46
6,GUUAACGGUCAUAGGCCAUGGAUACUAGGAGCACCAUUUCGCUGCCAGUGAAGAAAUGAACCAAGAAAAUCUGGGCCAGGCAGGCAUCAAAAGAAAUAGUCUCGCGCUCAACCAGAAAGUCUGUAAUCAUUUUAAGGGAA,0.58
7,GUUAACGGUCAUAGGCCAUGGAUACUAGGAGCACCAUUUCGCUGCCAGUGAAGAAAUGAACAAAGAAAAUCUGGGCCAGGCAGGCAUCGAAAGAAAUAGUCUUGCGCUCAACCAGAAAAUCUGUAAUCAUUUUAAGGGUA,2.02
8,GUUAACGGUCAUAGGCCAUGGAGACUAGGAGCACCAUUUCGCUGCCAGUGAAGAAAUGAACAAAGAAAAUCUGGGCCAGGCAGGCAUCAAAAGAAACAGUCUUGCGCUCAUCCAGAAAGUCUGUGAUCAUUCUAAGGGUA,0
9,GUUAACGGUCAUAGGCCAUGGAUACUAGGAGCACCAUUUCGCUGCCAGUGAAGAAAUGAACAAAGAAAAUCUGGGCCUGGCAGGCAUCGAAAGAAAUAGUCUUGCGCUCAACCAGAAAGUCUGUAAUCAUUUUAAGGGUA,0.53
10,GUUAACGGUCAUAGGCCAUGGAUACUAGGAGCACCAUUUCGCUGCCAGUGGAGAAAUGAACAAAGAAAAUCUGGGCCAGGCAGGCAUCAAAAGAGAUAGUCUUGCGCUCAACCAGAAAGUCUGUAAUCAUUUUAAGGGUA,1.03
11,GUUAACGGUCAUAGGCCAUGGAUACUAGGAGCAGCAUUUCGCUGCCAGUGAAGGAACGAACAAAGAAAAUCUGGGCCAGGCAGGCAUCAAAAGAAAUAGUCUUGCGCUCAGCCAGAAAGUCUGUAGUCAUUUUAAGGGUA,0
12,GUUAACGGUCAUAGGCCAUGGAUACUAGGAGCACCAUUUCGCUGCCAGUGAAGAAAUGAACAUAGAAAAUCUGGGCCAGGCAGGCAUCAAAAGAAAUAGUCUUGCGCUCAACCAGAGAGUCUGUAAUCAUUUUAAGGGUA,1.15
13,GUUAACGGUCAUAGGCCAUGGAUACUAGGAGCACCAUUUCGCUGCCAGUGAAGAAAUGGGCAAAGAAAAUCUGGGCCAGGCAGGCAUCAAAAGAAAUAGUCUUGCGCUCAACCUGAAAGUCUGUAAUCAUUUUAAGGGUA,0.1
14,GUUAACGGUCAUAGGCCAUGGAUACUAGGAGCACCAUUUCGCUGCCUGUGAAGAAAUGAACAAAGAAAAUCUGGGCCAGGCUGGCAUCAAAAGAAAUAGUCUUGCGCUCAACCAGAAAGUCUGUAAUCAUUUUAAGGGUA,0.41
15,GUUAACGGUCAUAGGCCAUGGAUACUAGGAGCACCAUUUCGCUGCCAGUGAAGAAAUGAACAAAGAGAAUCUGGGCCAGGCAGGCAUCAAAGGAAAUAGUCUUGCGCUCAACCAGAAAGCCUGUAAUCAUUUUAAGGGUA,0.53
16,GUUAACGGUCAUAGGCCAUGGAGACUAGGAGCACCAUUUCGCUGCCAGUGAAGAAAUGAACAAAGAAAACCUGGGCCAGGCAGGCAUCAGAAGAAAUAGUCCUGCGCUCAACCAGAAAGUCUGUAAUCAUUUUAAGGGUA,0.54
17,GUUAACGGUCAUAGGCCAUGGAUACUAGGAGCACCAUUUCGCUGCCAGUGAAGAAAUGAACAAAGAUAAUCUGGGCCAGGCAGGCAUCAGAAGAAAUAGUCUUGCGCUCAACCAGAAAGUCUGUGAUCAUUUUAAGGGUA,0.29
18,GUUAACGGUCAUAGGCCAUGGAGACUAGGAGCACCAUUUCGCUGCCAGUGAAGAAAUGAACAAAGAAAAUCUGGGCCAGGCAGGCAUCAAAAGAAAUAGUCUCGCGCUCAGCCAGAAAGUCUGUAAUCAUUUUAAGGGUA,0.01
19,GUUAACGGUCAUAGGCCAUGGAUACUAGGAGCACCAUUUCGCUGCCAGUGAAGAAAUGGACAAAGAAAAUCUGGGCCAGGCAGGCAUCAAAAGAAAUAGUCUCGCGCUCAACCAGAAGGUCUGCAAUCAUUUUAAGGGUA,0.13
20,GUUAACGGUCAUAGGCCAUGGAGACUAGGAGCACCAUUUCGCUGCCAGUGAAGAAAUGAACAAAGAAAACCUGGGCCAGGCAGGCAUCAAAAGAAAUAGUCUUGCGCUCAACCAGAAAGUCUGUAAUCAUUUUAUGGGUA,0.24
